# Assay results reported in PubChem BioAssay AID488969 (Vanderbilt High Throughput Screening Facility, 2010).
# Over roughly 110,000 compounds, “z-score” has its median near -0.1; the highest 2% begin near 2. This is one part of the list. Active and inactive are the calls of the source.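 The calls were made as follows: active = z-score in the third read window above 3 or below -3; inactive = the rest.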
# Target: Metabotropic glutamate receptor 8 (Rattus norvegicus) (UniProt P70579)
# Assay: rat mGluR8 modulators via GIRK flux, primary screen, cell-based, thallium flux, HTS (AID 488969)
# Details: HEK293 rat mGluR8, GIRK (G protein-gated inwardly rectifying potassium channel) thallium flux, FluoZin2; at 10 µM; stronger effect = higher value; submaximal glutamate (EC20) added with thallium
# UniProt P70579, sequence (P70579 whole entry, looked up): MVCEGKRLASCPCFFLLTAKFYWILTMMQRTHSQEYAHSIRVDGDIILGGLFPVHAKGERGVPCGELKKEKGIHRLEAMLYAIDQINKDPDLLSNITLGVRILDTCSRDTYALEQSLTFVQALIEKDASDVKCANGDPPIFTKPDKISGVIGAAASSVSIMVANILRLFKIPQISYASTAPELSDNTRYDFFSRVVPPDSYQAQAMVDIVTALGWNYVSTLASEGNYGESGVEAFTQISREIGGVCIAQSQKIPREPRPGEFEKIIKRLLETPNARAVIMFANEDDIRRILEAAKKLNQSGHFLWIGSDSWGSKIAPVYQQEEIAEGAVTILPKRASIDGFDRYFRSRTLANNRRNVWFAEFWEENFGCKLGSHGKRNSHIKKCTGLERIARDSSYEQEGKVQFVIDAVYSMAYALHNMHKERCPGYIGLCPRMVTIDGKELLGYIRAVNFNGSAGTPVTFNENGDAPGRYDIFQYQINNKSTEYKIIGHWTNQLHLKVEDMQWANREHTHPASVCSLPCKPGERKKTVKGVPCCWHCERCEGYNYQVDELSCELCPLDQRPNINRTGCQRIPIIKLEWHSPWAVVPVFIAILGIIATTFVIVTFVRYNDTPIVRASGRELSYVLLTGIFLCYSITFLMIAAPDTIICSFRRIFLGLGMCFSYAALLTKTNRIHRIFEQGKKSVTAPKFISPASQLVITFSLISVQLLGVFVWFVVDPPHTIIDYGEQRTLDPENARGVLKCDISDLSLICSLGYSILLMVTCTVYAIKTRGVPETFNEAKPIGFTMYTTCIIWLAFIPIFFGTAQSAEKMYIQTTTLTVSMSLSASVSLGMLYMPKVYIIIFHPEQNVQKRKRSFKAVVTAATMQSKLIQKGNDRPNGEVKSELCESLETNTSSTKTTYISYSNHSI
row,SMILES,z-score
1,Cc1ccc(-c2nnc(CSc3nnc(C)s3)o2)cc1,0.552
2,COc1ccc(NC(=O)c2sccc2SCc2cccc(C(F)(F)F)c2)cc1,-0.392
3,Cn1c(=O)n(C)c2cc(S(=O)(=O)N3CCCc4ccccc43)ccc21,-0.0429
4,Cc1ccc(C)c(S(=O)(=O)Nc2ccc3sc(C)nc3c2)c1,0.181
5,O=C(O)c1sccc1SCc1ccc(Cl)c(Cl)c1,-0.611
6,CCOc1cnc(-c2ccc(OC)cc2)o1,-0.159
7,Cc1cc(C)c2oc(-c3ccc(Cl)c(NC(=O)c4ccc(C#N)cc4F)c3)nc2c1,-0.14
8,O=C(OC(c1ccc(NS(=O)(=O)c2ccccc2)cc1)(C(F)(F)F)C(F)(F)F)c1ccccc1,-0.983
9,CC1=CC(C)(C)N(S(=O)(=O)c2ccc(C)cc2)c2ccc(C)cc21,0.0904
10,C=CCN1C(=O)/C(=C/c2ccccc2)S/C1=N/c1nccs1,-0.00934
11,Cc1ccc(S(=O)(=O)NCCNC(=O)CN2CCCC2)cc1,0.319
12,O=C(O)c1cc(-c2ccccc2Cl)n[nH]1,-0.1
13,CSc1nnc(-c2cc3ccccc3cc2O)n1C,1.39
14,CNS(=O)(=O)c1ccc(Oc2ccc(S(=O)(=O)NC)cc2)cc1,0.861
15,CC(C)(C)N(NC(=O)Nc1ccc(Cl)c(Cl)c1)C(=O)c1ccccc1,1.85
16,S=C(Nc1ccc(Cl)cc1)N1CCN(C2CCCCC2)CC1,-0.316
17,O=C(c1cc2c(=O)oc3ccccc3c2s1)N1CCOCC1,-0.802
18,Cc1nc2nc(-c3cccnc3)nn2c(C)c1Cl,0.342
19,Cc1cccc2[nH]c3c(N4CCC5(CC4)OCCO5)ncnc3c12,-0.208
20,COc1ccc(-n2nnc3c(=O)n(Cc4ccccc4C)cnc32)cc1,-0.283
21,CCOC(=O)c1cc(NC(=O)C2C3CCC(O3)C2C(=O)O)cc(C(=O)OCC)c1 (stereo not given),0.0323
22,Cc1ccc(CNC(=O)C2CCN(S(=O)(=O)c3cnc[nH]3)CC2)cc1,0.036

row,SMILES,z-score
1,O=C(NC(=S)N1CCCc2ccccc21)c1ccc(Br)cc1,active: 9.56
2,COc1ccc(Cl)cc1NC(=S)N(CCCN1CCOCC1)Cc1cn(C)c2ccccc12,-0.154
3,Cc1ccc(NC(=O)CCn2cccc2)cc1,-0.101
4,O=C(CN1N=C(c2ccc(Cl)cc2)CCC1=O)NCc1cccnc1,-0.0556
5,CCCn1c(-c2ccc(OC)cc2)nc2nc3ccccc3nc21,-0.363
6,COc1ccc(NC(=O)C2=C(C)C(=O)OC23CCC(C)CC3)cc1Cl (stereo not given),0.29
7,Cc1cc(C)cc(SCc2noc(C(=O)NC(C)C)c2C(=O)O)c1,-0.138
8,CCOC(=O)N1CCC(NC(=O)c2cc(S(=O)(=O)N3CCc4ccccc43)cn2C)CC1,-0.277
9,O=C(CN1CCN(Cc2ccccc2Cl)C1=O)NCc1ccco1,0.164
10,S=C1NCCOCCOCCOCCN1,-0.259
11,COc1ccc(C(=O)NC(=S)N2CCCCC2)cc1[N+](=O)[O-],1.25
12,COc1ccc(/C=N/NC(=O)c2ccc(COc3ccccc3Cl)o2)cc1,-0.279
13,COc1ccc(NC(=O)C23CCC(C2)C(C)(C)C3=O)cc1 (stereo not given),-0.0724
14,Cc1ccc(NC2c3ccccc3C(=O)N2CCN2CCOCC2)cc1 (stereo not given),0.0479
15,O=C(CSCc1ccc(Cl)cc1)NN=C1CCCCCC1,0.757
16,CCCCOc1ccccc1C1C(C(N)=O)=C(C)Nc2nnnn21 (stereo not given),-2.99
17,CC(=O)N(C)C1=C(N2CCOCC2)C(=O)c2ccccc2C1=O,-0.168
18,O=C(NCc1cccs1)N[C@@H](Cc1ccccc1)C(=O)O,0.257
19,CCCCNC(=O)COC(=O)c1c2c(nc3ccccc13)/C(=C/c1cccs1)CC2,-0.279
20,CCOC(=O)c1c(C)c(C(=O)N2CCCCCC2)c(C)n1C,-0.268
21,O=C(CCCCCN1C(=O)CCC1=O)Nc1ccc2c(c1)OCO2,-0.12
22,COc1ccc(S(=O)(=O)N(C)Cc2cccs2)cc1Br,-0.126

row,SMILES,z-score
1,O=C(O)c1cccc(Cn2c(Cl)c(/C=N/NC(=O)c3ccccc3Cl)sc2=O)c1,0.217
2,O=C(CC(C(=O)O)C1CCCO1)Nc1cccc(C(F)(F)F)c1 (stereo not given),0.396
3,Cc1cccc(OCc2nnc(SCC(=O)N3CCN(C(=O)c4ccco4)CC3)n2C)c1C,0.31
4,Cc1ccc(N(C(=O)CCC(=O)Nc2cc(C)on2)C(C(=O)NC2CCCC2)c2cccs2)cc1 (stereo not given),-1.5
5,COc1ccc2c(c1)c(=O)oc1cc(OCC(=O)N3CCC(C)CC3)ccc12,-0.128
6,C=CCN1CCN(Cc2cnc(Cl)s2)CC1,0.00711
7,CCCOc1ccc(/C(O)=C2/C(=O)C(=O)N(CCCn3ccnc3)C2c2ccco2)cc1 (stereo not given),-0.0422
8,O=C(CN1CCN(c2ccccc2)CC1)Nc1c(C(=O)C2CC2)oc2ccccc12,-0.421
9,COc1cc(NC(=O)C2C3C=CC(C3)C2C(=O)O)c(OC)cc1Cl (stereo not given),0.0185
10,COCCCNC(=O)c1ccccc1NS(=O)(=O)c1ccc(C)cc1,-0.247
11,C/C(=N\OCC(=O)Nc1c(C)cc(C)cc1C)c1ccc2c(c1)OCCO2,-0.217
12,S=c1nc(-c2ccccc2)n(Cc2ccco2)c2c1CCCC2,2.16
13,Cc1ccc(C)c(NC(=S)N2CCN(CCO)CC2)c1,0.0185
14,CN(C)S(=O)(=O)Oc1ccsc1C(=O)Nc1cccc(Cl)c1,-0.299
15,C=CCn1c(SCC(=O)N2N=C(c3ccco3)CC2c2ccco2)nnc1-c1ccncc1 (stereo not given),0.206
16,O=c1c2c(nc3nc(Cc4ccccc4)[nH]n13)CCC2,-0.984
17,Nc1c(-c2ccccc2)c(CSc2nc3ccccc3[nH]2)nn1-c1ccc(Cl)cc1,-0.471
18,NC(=O)C1CCN(C(=O)CCCCCn2c(=O)[nH]c3ccsc3c2=O)CC1,-0.0678
19,O=C(NCc1ccccc1)c1ccc(COCC(F)(F)F)o1,0.193
20,Cn1nc(C(=O)NC2=NCCS2)ccc1=O,-0.148
21,COc1ccc(S(=O)(=O)N(C)CC(=O)N2CCOCC2)cc1,0.616
22,CCn1c(=O)c2ccccc2n2c(SCC(=O)N3CCc4ccccc4C3)nnc12,1.51

row,SMILES,z-score
1,O=C1c2ccccc2-c2nc3ncnn3c(-c3ccccc3Cl)c21,-0.172
2,CC1CCN(CCCNC(=O)CCCNC(=O)Cn2cnc3sc4c(c3c2=O)CCCC4)CC1,0.228
3,CCn1c(SCC(=O)N/N=C/C=C\c2ccco2)nc2ccccc21,-0.415
4,CC(C)(C)n1nnnc1C(c1cccnc1)N1CCN(c2ccccc2F)CC1 (stereo not given),1.05
5,COC(=O)CC/C(O)=C1/C(=N)CC(C)(C)CC1=O,-0.39
6,O=C(CN1CCN(c2ccccc2)CC1)c1ccc2cc[nH]c2c1,0.196
7,CCc1ccccc1NC(=O)CC(c1ccc(OC)cc1)n1cccc1 (stereo not given),0.00269
8,c1ccc(-c2cc(N3CCCCCC3)n[nH]2)cc1,-0.216
9,COc1ccc(NC(=O)Nc2nnc(-c3ccccc3SCc3ccccc3)s2)cc1,-0.158
10,CS(=O)(=O)N1CCN(C(=O)c2cc(-c3ccccc3)nc3ccccc23)CC1,-0.102
11,COc1ccc(/C=C2\CCc3ccccc3C2=O)cc1OC,1.63
12,CCOc1ccccc1NC(=O)C(CC(C)C)NC(=O)C1CCCCC1 (stereo not given),-0.18
13,CCOc1ccc(NC(=O)COC(=O)CCCc2c[nH]c3ccccc23)cc1,-0.489
14,COc1cc(C(=O)OC(C)CN2CCCC2)cc(OC)c1OC (stereo not given),-0.00418
15,Cc1ccc(C(C(=O)NC2CCCCC2)N(Cc2ccccc2)C(=O)Cc2c[nH]c3ccccc23)o1 (stereo not given),-0.243
16,CCOC(=O)c1nnn(CC(=O)N2N=C(c3ccc(Cl)cc3)CC2c2ccccc2)c1C(=O)OCC (stereo not given),1.16
17,COc1ccccc1/C=C(/C(=O)OCC(=O)Nc1cc(C)ccc1C)c1ccccc1,-0.105
18,O=C(NC1CCCCC1)[C@H](O)[C@@H](O)C(=O)NC1CCCCC1,-0.394
19,COc1ccnc(Oc2ccc(C)cc2C)c1C#N,-0.085
20,Cc1cccc(NC(=O)C2(c3cccs3)CCOCC2)n1,-0.352
21,COc1ccc(-c2noc(CCCc3ccccc3)n2)cc1OC,-0.00278
22,Cc1ccc2nc(SCc3cn4c(C)cc(C)nc4n3)[nH]c2c1,-0.419

row,SMILES,z-score
1,COc1cc(/C=C(\NC(=O)c2ccccc2)C(=O)NCC(=O)O)c([N+](=O)[O-])cc1OC,0.051
2,CCOc1ccc(C(=O)OCc2nnc(-c3cccs3)o2)cc1OC,-1.3
3,O=C(CCNC(=O)Cn1ccc2ccccc2c1=O)NCCCN1CCN(c2ccccc2F)CC1,0.0122
4,Clc1cccc(-c2nc3nc4ccccc4nc3n2Cc2ccccc2)c1,-0.0197
5,CN1CCN(Cc2cccc(Oc3ccccc3)c2)CC1,0.0807
6,O=C(CCN1C(=O)c2ccccc2C1=O)C1=NN[C@@H]2C(=O)N(c3cccc(F)c3)C(=O)[C@H]12,-0.278
7,COc1ccc(-c2nnc(SCc3cccc(C#N)c3)o2)cc1,-0.227
8,COc1ccc(Cl)cc1NC(=O)C(=O)N/N=C/c1cc(C)n(-c2ccc(C)cc2)c1C,0.183
9,Cc1ccccc1Nc1nc(-c2sc(NC(=O)c3ccc([N+](=O)[O-])cc3)nc2C)cs1,0.0251
10,O=C(Cc1c[nH]c2ccccc12)N/N=C/c1ccc(F)cc1,-0.0857
11,O=C(NCCN1CCOCC1)c1cc2ccccc2[nH]1,-0.746
12,O=C(CNC(=O)Cc1ccccc1)N=Nc1c(O)n(Cc2ccc3c(c2)OCO3)c2ccccc12,-0.518
13,COc1ccc2c(c1)c(=O)oc1cc3oc(C)c(C)c3cc12,-0.412
14,CC1CCCN(c2nc3nonc3nc2N2CCCC(C)C2)C1 (stereo not given),-0.3
15,COc1ccc(Nc2cnn(-c3nc4ccccc4s3)c(=O)c2Cl)cc1,-0.201
16,O=C(Nc1ccc2oc(-c3ccccc3)nc2c1)c1cccnc1,-0.943
17,COc1cc(NC(=O)CN2C(=O)NC(C)(CC(C)C)C2=O)cc(OC)c1 (stereo not given),-0.681
18,O=C(Nc1ccccc1)N(C1=NCCCCS1)c1cccc2ccccc12,-0.463
19,COc1cc2c(cc1OC)/C(=C/C(=O)N1CCOCC1)NC(C)(C)C2,-0.195
20,Cc1ccc(S(=O)(=O)Nc2cccc3cccnc23)cc1,-0.731
21,Cc1nc2nc(SCC(=O)N3CCOCC3)nn2c(C)c1Cc1ccccc1,0.476
22,CCCc1cc(N2CCCC(C(=O)Nc3c(OC)cccc3OC)C2)n2ncnc2n1 (stereo not given),-0.175
